The campaign covered roughly 310,000 compounds. About 14,000 (4.5%) showed an effect of 50% or more. The effect is printed as a negative number. The list shows a part of the results.
target: human ether-à-go-go-related gene (hERG) potassium channel (human, UniProt Q12809); assay: primary screen, population patch clamp on CHO cells stably expressing hERG
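Also: peak tail current of the secondary pulse compared with the same well before compound.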

Chain of human ether-à-go-go-related gene (hERG) potassium channel (Q12809 whole entry, looked up): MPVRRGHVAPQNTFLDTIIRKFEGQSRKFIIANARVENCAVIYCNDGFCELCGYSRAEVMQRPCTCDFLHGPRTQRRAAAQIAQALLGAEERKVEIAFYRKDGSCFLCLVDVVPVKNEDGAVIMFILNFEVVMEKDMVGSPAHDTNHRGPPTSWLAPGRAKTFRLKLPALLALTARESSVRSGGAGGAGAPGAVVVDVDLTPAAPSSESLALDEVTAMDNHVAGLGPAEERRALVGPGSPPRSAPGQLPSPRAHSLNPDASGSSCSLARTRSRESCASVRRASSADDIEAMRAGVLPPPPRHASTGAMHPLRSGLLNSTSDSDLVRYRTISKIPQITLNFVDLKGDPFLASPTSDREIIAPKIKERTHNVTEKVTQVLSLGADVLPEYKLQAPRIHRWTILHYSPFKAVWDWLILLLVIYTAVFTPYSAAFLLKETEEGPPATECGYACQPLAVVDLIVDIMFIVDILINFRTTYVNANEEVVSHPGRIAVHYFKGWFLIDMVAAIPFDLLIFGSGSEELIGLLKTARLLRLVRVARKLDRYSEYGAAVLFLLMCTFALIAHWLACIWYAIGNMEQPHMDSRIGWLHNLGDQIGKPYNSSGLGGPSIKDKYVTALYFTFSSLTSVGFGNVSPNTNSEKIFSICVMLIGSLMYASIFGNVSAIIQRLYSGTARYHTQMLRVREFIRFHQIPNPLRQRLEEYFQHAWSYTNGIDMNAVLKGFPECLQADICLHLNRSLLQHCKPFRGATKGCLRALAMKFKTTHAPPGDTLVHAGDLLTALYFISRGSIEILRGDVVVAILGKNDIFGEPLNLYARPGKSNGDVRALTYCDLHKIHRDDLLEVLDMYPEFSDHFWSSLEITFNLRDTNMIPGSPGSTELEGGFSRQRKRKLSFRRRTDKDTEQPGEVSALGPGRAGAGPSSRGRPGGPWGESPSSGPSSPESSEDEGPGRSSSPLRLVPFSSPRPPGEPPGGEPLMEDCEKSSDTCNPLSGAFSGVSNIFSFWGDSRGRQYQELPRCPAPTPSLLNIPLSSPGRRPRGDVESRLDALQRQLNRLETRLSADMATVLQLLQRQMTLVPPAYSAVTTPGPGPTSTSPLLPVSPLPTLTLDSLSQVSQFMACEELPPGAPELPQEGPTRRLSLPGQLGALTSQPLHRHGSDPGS

SMILES | hERG current change (%, negative = inhibition) at 10uM [%]
Cc1ccc(CNC(=O)c2ccc(NC3=NC4CS(=O)(=O)CC4S3)cc2)cc1 (stereo not drawn) | -1.11
Cc1cc2c(cc1C)-c1nnnn1C(C)(C)C2 | 15.2
C=CCNC(=O)CSc1nc2scc(-c3ccco3)c2c(=O)n1CC=C | -34.5
Cc1ccc(CNC(=O)C2CCN(S(=O)(=O)c3ccc4nc5c(c(C(=O)O)c4c3)CC(C)CC5)CC2)cc1 (stereo not drawn) | 5.24
O=C(O)c1nc(-c2ccccc2)n(-c2ccc(Cl)cc2)n1 | 13.7
Cc1c(Cl)cccc1NC(=S)NCc1cccs1 | 1.06
CC1CCN(CCCNC(=O)C2CC(=O)N(CCc3ccccc3)C2)CC1 (stereo not drawn) | -37.1
Cc1ccc(N(CC(O)CN2C(=O)NC(C)(C)C2=O)S(=O)(=O)c2ccc([N+](=O)[O-])cc2)cc1 (stereo not drawn) | -32.7
O=C(CSc1nnc(NC(=O)C2CC2)s1)Nc1ccccc1Cl | 15.3
CN(CC(=O)Nc1cccc(F)c1)C(=O)c1ccc(NC2CC2)c([N+](=O)[O-])c1 | -68.5
Cc1cc(=O)oc2cc3c(cc12)OCCN3 | 4.94
O=C(CCN1CCOCC1)Nc1c(-c2ccccc2)c2cc(Br)ccc2[nH]c1=O | -11.9
O=c1c2ccsc2ncn1Cc1ccccc1F | 5.25
O=S(=O)(Cc1cc(Cl)nc(-c2ccccc2)n1)c1ccccc1 | 8.9
Cc1ccc(N2C(=O)C(Cl)=C(N3CCOCC3)C2=O)c(C)c1 | 14.6
CS(=O)(=O)c1sc(C(=O)NC(=S)Nc2ccc(OC(F)(F)F)cc2)c2c1C=CCC2 | 9.25
Cc1ccc(OCCCC(=O)Nc2ccc(S(=O)(=O)Nc3cc(C)on3)cc2)cc1 | 3.91
CCN(CC)C1=NC(=[N+](CC)CC)c2ccccc21.[O-][Cl+3]([O-])([O-])[O-] | -11.6
O=C(O)C1[C@H]2C(=O)N(C3CCCC3)C[C@]23C=C[C@H]1O3 (stereo partly drawn) | -28.9
COc1ccc(-c2cc(=O)oc(-c3cccc(C)c3)n2)cc1 | 18.1
CCc1nc(-c2ccccc2O)n(-c2ccccc2)n1 | 8.76
O=C(NCCc1ccccc1Cl)c1cc(COc2ccc(F)cc2F)on1 | 7.59
CC(C)(C)C(=O)NCCN1C(=O)S/C(=C\c2ccc([N+](=O)[O-])cc2)C1=O | -22.1
Cc1ccccc1CS(=O)(=O)CC1(O)CCN(C(=O)c2cccc(C(F)(F)F)c2)CC1 | 3.8
